Experimental data from PMC12420274.
Where a chain is given by its changes, count along the chain named. Read-outs that look alike come from different tables or passages of the source. Results are given in words; binding and its absence hold for the method and conditions named. In cells and extracts the contact can be indirect. Some results given as binding are weak or reduced against the parent protein; the word gives no strength. For part of these data: Sequences can lack the tags named with a protein. Values belong to the molecule of their own block, whether it stands above or below them.

Protein sequences, listed by entry. Tags and fused reporters are not part of them. Residues count along the entry.
UniProt P31994, residues 43-310: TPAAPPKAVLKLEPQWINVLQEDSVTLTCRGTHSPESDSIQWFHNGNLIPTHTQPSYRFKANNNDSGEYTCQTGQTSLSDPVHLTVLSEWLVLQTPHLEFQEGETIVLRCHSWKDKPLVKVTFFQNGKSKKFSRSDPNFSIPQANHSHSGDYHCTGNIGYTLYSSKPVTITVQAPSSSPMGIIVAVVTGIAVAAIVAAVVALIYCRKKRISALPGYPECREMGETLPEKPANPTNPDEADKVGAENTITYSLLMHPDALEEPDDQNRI
UniProt P12314, residues 16-374: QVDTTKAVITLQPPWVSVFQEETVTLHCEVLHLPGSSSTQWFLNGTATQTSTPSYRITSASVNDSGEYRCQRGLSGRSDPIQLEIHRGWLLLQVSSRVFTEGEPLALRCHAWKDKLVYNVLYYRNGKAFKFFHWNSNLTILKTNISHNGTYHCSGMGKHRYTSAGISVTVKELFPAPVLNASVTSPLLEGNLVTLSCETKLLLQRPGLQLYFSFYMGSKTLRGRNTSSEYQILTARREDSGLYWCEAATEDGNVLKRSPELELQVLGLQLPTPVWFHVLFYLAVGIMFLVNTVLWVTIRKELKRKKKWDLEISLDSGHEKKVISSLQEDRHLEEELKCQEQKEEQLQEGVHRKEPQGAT
UniProt P12318, residues 34-317: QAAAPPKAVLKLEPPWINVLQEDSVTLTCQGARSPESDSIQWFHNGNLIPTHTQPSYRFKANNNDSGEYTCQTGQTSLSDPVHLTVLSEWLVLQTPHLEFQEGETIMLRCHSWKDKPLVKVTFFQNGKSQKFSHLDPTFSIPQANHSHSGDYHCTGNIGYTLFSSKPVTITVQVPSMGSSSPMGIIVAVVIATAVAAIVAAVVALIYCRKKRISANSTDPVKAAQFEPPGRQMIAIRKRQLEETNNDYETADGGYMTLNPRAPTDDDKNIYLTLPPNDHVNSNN
UniProt P25911: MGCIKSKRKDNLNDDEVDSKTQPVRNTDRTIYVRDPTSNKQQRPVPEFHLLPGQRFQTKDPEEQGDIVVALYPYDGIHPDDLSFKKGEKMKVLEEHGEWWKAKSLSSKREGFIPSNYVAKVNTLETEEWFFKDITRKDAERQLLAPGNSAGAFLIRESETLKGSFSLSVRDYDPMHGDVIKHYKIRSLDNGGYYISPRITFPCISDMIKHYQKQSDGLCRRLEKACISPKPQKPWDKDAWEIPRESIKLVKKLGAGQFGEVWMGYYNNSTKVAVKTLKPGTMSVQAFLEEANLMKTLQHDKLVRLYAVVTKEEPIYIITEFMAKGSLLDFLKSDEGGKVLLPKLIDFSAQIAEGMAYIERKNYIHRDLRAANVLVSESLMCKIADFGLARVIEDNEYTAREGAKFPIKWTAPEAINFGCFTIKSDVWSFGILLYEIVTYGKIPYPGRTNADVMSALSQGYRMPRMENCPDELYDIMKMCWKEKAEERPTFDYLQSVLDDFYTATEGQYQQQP

Tests used:
[1] = target: FcαRI (CD89) Ser^248 variant with the transmembrane Arg^209Leu mutation (FcRγ-pairing-disabled) (human) (UniProt P24071); assay: co-IP; FcαRI immunoprecipitated with A59 F(ab')2 Sepharose beads from P388D1 cells stably expressing FcαRI Ser248 or Gly248 with or without Arg209Leu; immunoblot for Sab (mAb 2B5.1), Lyn, FcRγ
[2] = target: FcαRI (CD89) Gly^248 variant with the transmembrane Arg^209Leu mutation (FcRγ-pairing-disabled) (human) (UniProt P24071); assay: as above
[3] = target: FcαRI (CD89) Gly^248 variant, FcRγ-pairing-enabled (Arg^209) (human) (UniProt P24071); assay: as above
[4] = target: T1, His6-tagged human Sab expressed in COS7 cells (human) (UniProt O60239); assay: pull-down; lysates of COS7 cells co-expressing His6-Sab and FcαRI Ser248 or Gly248 passed over a Ni-NTA column; wash 20 mM imidazole, elution 250 mM imidazole; immunoblot for FcαRI in input, flow-through and bound fractions
T1 sequence: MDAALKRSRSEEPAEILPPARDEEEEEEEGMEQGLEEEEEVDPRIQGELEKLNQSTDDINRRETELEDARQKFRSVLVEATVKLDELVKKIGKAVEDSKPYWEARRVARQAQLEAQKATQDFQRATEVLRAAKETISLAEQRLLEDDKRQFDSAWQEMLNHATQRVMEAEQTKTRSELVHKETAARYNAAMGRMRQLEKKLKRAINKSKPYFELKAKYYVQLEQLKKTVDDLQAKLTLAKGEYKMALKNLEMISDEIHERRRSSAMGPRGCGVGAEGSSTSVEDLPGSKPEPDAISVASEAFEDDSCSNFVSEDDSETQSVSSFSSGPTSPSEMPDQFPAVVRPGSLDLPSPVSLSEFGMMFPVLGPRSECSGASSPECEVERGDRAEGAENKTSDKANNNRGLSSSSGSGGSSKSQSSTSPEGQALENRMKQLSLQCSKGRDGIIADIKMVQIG

[5] = target: T2, GST-FcαRI cytoplasmic domain fusion protein, Ser^248, phosphorylated with PP1-activated CK1δ (human) (UniProt P24071); assay: pull-down; immobilised GST-FcαRI CYT variants and point mutants, with or without treatment with PP1-activated CK1δ, incubated with lysate of U937 cells expressing His6-Sab (Lyn endogenous); immunoblot for His6-Sab and Lyn (the methods describe 10 µg purified His-tagged Sab, 30°C, 60 min, on glutathione Sepharose-4B); only the target purified
T2 sequence (chain, phosphoserine at 248 (phosphorylated in vitro by PP1-activated CK1δ)): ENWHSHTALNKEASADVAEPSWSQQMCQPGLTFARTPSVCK

[6] = target: T3, GST-CYT-Ser^248 S246A, phosphorylated with activated CK1δ (human) (UniProt P24071); assay: as above
T3 sequence (chain, phosphorylated with activated CK1δ): T2 sequence (chain, phosphoserine at 248 (phosphorylated in vitro by PP1-activated CK1δ)) with S21A

[7] = target: FcαRI (CD89) Ser^248 variant with the transmembrane Arg^209Leu mutation (FcRγ-pairing-disabled) (human) (UniProt P24071); assay: co-IP; FcαRI immunoprecipitated with A59 F(ab')2 Sepharose beads from P388D1 cells stably expressing FcαRI Ser248 or Gly248 with or without Arg209Leu; immunoblot for Sab (mAb 2B5.1), Lyn, FcRγ; remark: listed apart in the source
[8] = target: FcαRI (CD89) Gly^248 variant with the transmembrane Arg^209Leu mutation (FcRγ-pairing-disabled) (human) (UniProt P24071); assay: as above; remark: listed apart in the source
[9] = target: FcαRI (CD89) Ser^248 variant, FcRγ-pairing-enabled (Arg^209) (human) (UniProt P24071); assay: as above
[10] = target: FcαRI (CD89) Gly^248 variant, FcRγ-pairing-enabled (Arg^209) (human) (UniProt P24071); assay: as above; remark: listed apart in the source
[11] = target: FcαRI Ser^248, endogenous in human myeloid cells (human (endogenous in U937, THP-1, HL-60 and primary leukocytes)) (UniProt P24071); assay: co-IP; endogenous proteins; U937, THP-1, HL-60, neutrophils and mononuclear cells opsonised with A59 F(ab')2 and FcαRI precipitated with goat anti-mouse IgG beads (intracellular pool of neutrophils with F(ab')2 A59 beads); immunoblot for Sab
[12] = target: FcγRIIb (CD32B), endogenous in U937 (human (endogenous in U937)) (UniProt P31994); assay: co-IP; FcαRI, FcγRI, FcγRIIb and FcγRIIa immunoprecipitated from U937 cells with receptor-specific antibody fragments; immunoblot for Sab (E-18 and 2B5.1)
[13] = target: FcγRI (CD64), endogenous in U937 (human (endogenous in U937)) (UniProt P12314); assay: as above
[14] = target: FcγRIIa (CD32A), endogenous in U937 (human (endogenous in U937)) (UniProt P12318); assay: as above

Molecule: FcαRI Ser^248 co-expressed in COS7 cells (from UniProt P24071 22-287) (receptor)
- binding [4]: binds

Molecule: FcαRI Gly^248 co-expressed in COS7 cells (from UniProt P24071 22-287) (receptor)
- binding [4]: no binding

B1: His6-tagged human Sab stably expressed in U937 cells (protein, UniProt O60239 1-455)
chain: T1 sequence
- binding [5]: binds
- binding [6]: binds

B3: Sab (SH3BP5), endogenous in human myeloid cells (protein, UniProt O60239 1-455)
chain: T1 sequence
- binding [11]: binds
- binding [12]: no binding
- binding [13]: no binding
- binding [14]: no binding

Next, values leading:

- binding [1]: binds
- binding [2]: binds
- binding [3]: binds
Molecule: Lyn kinase (murine, endogenous in P388D1) (from UniProt P25911 1-512) (enzyme)

- binding [7]: binds
- binding [8]: no binding
- binding [9]: binds
- binding [10]: no binding
B2: murine Sab (SH3BP5) (protein, UniProt Q9Z131 1-463)
chain: MDTALKRSRSDEPAELPPPAREVEEKEEEEERMEQGLEEEEEEVDPRIQGELEKLNQSTDDINRRETELEDARQKFRSVLVEATVKLDELAKKIGKAVEDSKPYWEARRVARQAQLEAQKATQDFQRATEVLRAAKETISLAEQRLLEDDKRQFDSAWQEMLNHATQRVMEAEQTKTRSELVHKETAARYNAAMGRMRQLEKKLKRAINKSKPYFELKAKYYVQLEQLKKTVDDLQAKLALAKGEYKAALKSLERISDEIHERRRSNAMGPRGCGVGAEGSIASVENLPVSKPEPDAISVASEAFEDDNCSNLVSEDDSETQSVSSFSSGPTSPSEMPDQFPAVARPGSLDLPSPVSLSEFGMMFPILGPRSECSGASSPECEVERGDRAEGAENKMSDKANNNRVLGSTNGGSGRSRSQSSTSLESQALETRMKQLSLQCSKGRDGIIADIKMIFIFYTFLQ
